From publication PMC8096265, “A functional LSD1 coregulator screen reveals a novel transcriptional regulatory cascade connecting R-loop homeostasis with epigenetic regulation” (Nucleic Acids Research, 2021)

Experiments:
[1] = target: DDX19A; assay: Equilibrium peptide binding, fluorescence anisotropy; settings: recombinant DDX19A titrated onto 50 nM FITC-labeled H3.1 peptide (residues 16–34), 23°C, ex 495 nm / em 520 nm, 20 mM HEPES pH 7.5, 100 mM KCl, 0.1 mM DTT, 10% glycerol; at least 3 technical replicates; read-out: dissociation constant (KD)
Method: Determination of KD of DDX19A and H3K27 was conducted using H3.1 peptide labeled with FITC. The H3.1 peptide comprising residues 16–34 of the H3.1 tail was unmodified or trimethylated at K27. Binding was analysed using a Jasco FP-8300 spectrofluorometer with an automatic polarizer (FDP-837). Acquisitions were performed at 23°C, with excitation at 495.0 nm and emission measured at 520 nm. Slit width was set to 5 nm. 50 nM of peptide were dissolved in 0.5 ml of anisotropy buffer (20 mM HEPES pH 7.5, 100 mM KCl, 0.1 mM DTT, 10% v/v glycerol). DDX19A diluted in dialysis buffer (20 mM HEPES pH 7.5, 200 mM KCl, 1 mM Na2-EDTA, 60% v/v glycerol, 0.2 mM DTT) was added stepwise. Titrations were conducted in at least 3 technical replicates. Control experiments were conducted with dialysis buffer without protein and the fluorescence anisotropy values were corrected accordingly. For determination of the KD-values for H3.1, the data were fitted to a simple binding equilibrium: […]

[2] = tested on: RNA:DNA hybrid structures (R-loops) in NIH/3T3 cells; assay: DRIP-qPCR with S9.6 antibody, R-loops; assay type: cell-based, murine; settings: nucleic acids digested with RNAse H before S9.6 IP, control
Method: Based on a detailed assessment of various DRIP protocols ([53]), DRIP was performed as described, with slight adaptations to workflow #19 ([53]). In brief, NIH/3T3 cells were harvested, washed once with 1X PBS and cross-linked in 1% formaldehyde/PBS for 10 min at room temperature. Crosslinking was quenched with 500 mM glycine for 5 min at room temperature. Cells were lysed in 300 μl of ChIP lysis buffer (50mM HEPES–KOH at pH 7.5, 140 mM NaCl, 1 mM EDTA at pH 8, 1% Triton X-100, 0.1% sodium-deoxycholate, 1% SDS) per 2 million cells for 30 min on ice and homogenized with a syringe every 10 min. Chromatin was fragmented by sonication using an EpiShear Probe Sonicator (Active Motif) for 2 × 12 cycles (20 s pulse, 30 s pause, 40% amplitude). The fragmented chromatin was supplemented with 300 mM NaCl and 50 μg of RNase A in 450 μl TE buffer (10 mM Tris–HCl pH 8, 10 mM EDTA pH 8) and incubated at 37°C for 1 h. The cross-linked D. melanogaster mononucleosomes were treated in parallel to obtain DNA for spike-in controls. To remove proteins and reverse the cross-links, the samples were treated with 15 μl of Proteinase K (20 mg/ml; Thermo Fisher Scientific) at 65°C for 16 h. […] The pellet was resuspended in 5 mM Tris–HCl, pH 8.5 and concentration was determined by NanoDrop. […]

[3] = tested on: R-loops in NIH/3T3 cells; assay: S9.6 immunofluorescence microscopy of R-loops; assay type: cell-based, murine; settings: transient expression of RNAseH1, transfection 24 h before fixation
Method: NIH/3T3 cells were cultivated until 70–90% confluency on microscopy coverslips. Cells were washed three times for 5 min with 2 ml PBS^Ca2+ Mg2+ (Sigma-Aldrich). Cells were fixed for 10 min at room temperature in 4% paraformaldehyde. Cells were washed as described and permeabilized with 0.2% ice-cold TritonX-100 in PBS for 5 min. Cells were blocked in 2 ml 5% non-fat dried milk in PBS^Ca2+ Mg2+ for 1h at room temperature. Primary antibody binding was performed overnight at 4°C with a concentration of 4 μg/ml antibody in PBS^Ca2+ Mg2+/5% non-fat dried milk powder. Secondary antibody binding was performed at room temperature for 2 h with a concentration of 0.5 μg/ml antibody in PBS^Ca2+ Mg2+/5% milk powder. Cells were stained with 1μg/ml DAPI in PBS^Ca2+ Mg2+ for 3 min, washed again with PBS and mounted on microscopy slides using Mowiol® 4–88 (Sigma-Aldrich).
For the quantification of the S9.6 staining, samples were analysed on a Zeiss Axio Observer.Z1 microscope equipped with a Plan-Apochromat 63×/1.40 Oil DIC M27 objective and an AxioCam MRm camera. […] Quantitative image analysis was done with CellProfiler™ version 2.2 ([56]). […]

[4] = tested on: R-loops from NIH/3T3 cell lysate; assay: S9.6 antibody IP, co-precipitation of LSD1 and DDX19A; assay type: cell-based, murine; settings: RNAseH1 treatment before IP with S9.6 antibody, Western blot
Method: 100 μl Dynabeads® Protein G were pre-blocked with 0.5% BSA/PBS for 2 h at 4°C. 10 × 10^6 non-crosslinked NIH/3T3 cells were harvested, washed once in 1× PBS and lysed in 1 ml Cell Lysis Buffer (85 mM KCl, 5 mM HEPES pH 8, 0.5% NP-40, cOmplete™ EDTA-free PIC) for 15 min on ice. Nuclei were collected by spinning 1 min at 15 000 × g, 4°C. The pellet was resuspended in 750 μl RSB buffer (10 mM Tris–HCl pH 7.5, 200 mM NaCl, 2.5 mM MgCl2, cOmplete™ EDTA-free PIC) supplemented with 0.2% sodium-deoxycholate, 0.1% SDS, 0.05% sodium-lauroyl-sarcosinate and 0.5% Triton X-100. Cells were sonicated for 4 min in an EpiShear Probe Sonicator (20 s pulse, 30 s pause, 40%). After taking 5% as input, samples were transferred to a 15 ml falcon tube and diluted 1:4 by addition of 2.3 ml RSB with 0.5% Triton X-100 (RSB+T). The samples were subjected to pre-clearing with 5 μg mouse IgG and 35 μl Dynabeads® Protein G for 1 h at 4°C. Magnetic beads were locked and the supernatant was split into three Eppendorf tubes. For the S9.6 antibody-specificity control, 40 U of RNAse H (NEB) were added to one of the tubes and all samples were incubated for 10 min at 37°C before adding the IP antibodies. The samples were subjected to IP with 4 μg of either the S9.6 antibody or mouse IgG and 32 μl pre-blocked beads per sample. 10 ng RNase A was added to each tube before rotating at 4°C for 2.5 h. […]

Row | Substance | Kd [1] [nM] | DRIP signal after RNAseH1 incubation [2] | R-loop signal (S9.6 immunostaining) [3] | co-precipitation of LSD1 or DDX19A with R-loops [4]
1 | H3K27me3 peptide: FITC-labeled H3.1 peptide comprising residues 16–34 of the H3.1 tail, trimethylated at K27 | 82 |  |  | 
2 | RNAseH1: Ribonuclease H1, known to specifically degrade the RNA of RNA:DNA hybrid structures |  | reduced the DRIP signal | strong reduction of the R-loop signal | attenuated
